Measured values as given in patent US11180744B2, “Acinetobacter lysins” (priority 2014, dated 2021).

System: A. baumannii clinical isolates
Experiment: Crude lysate clearing zones on A. baumannii soft agar plates
Settings: thirteen A. baumannii clinical isolates

B1: F307: phage lysin polypeptide, SEQ ID NO: 1, 16 kDa (protein, listed as Acinetobacter baumannii)
chain: VKTSNPGVDLIKGFEGLRLKAYDDGVGVWTIGFGTIKYPNGVRVKKGDTCTESQAEEYLRNDLVVFESAINRLVKVPLNQNQFDALASFTYNLGEGNLSISTLLKKLNAKDYKGAAAEFPKWNKAGGRVLAGLVKRRKAEMELFLK
number of strains for which that lysin was the most efficient: seven
